The results in this text go back to the supplement of paper PMC4723716.

± gives the uncertainty stated by the source. The full ranking holds about 9,900 compounds; the median of “viability index relative to DMSO control” is about 1, and the lowest 2% start at about 0.85. Some of the results follow.

The experiment concerns Plasmodium falciparum NF54 stage V gametocytes. The experiment in a line: viability index relative to DMSO control (fraction); higher = less gametocyte killing. Particulars: 2.5 µM, library set: Broad Institute DOS, incubation time: 72 h. Summed up:
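In 1,536-well plates, 10 µl of serum-free medium holding P. falciparum NF54 stage V gametocytes (0.75% gametocytemia, 1.25% hematocrit) received compound at 2.5 µM for 72 hr at 37°C in low oxygen. After one to two hours with 3 µl of 2.5 µM MitoTracker Red CMXRos containing 0.13% saponin, red particles of 20–70 µm2 were counted in a single field per well. Viability index is reported as the particle count over the plate mean of wells treated with solvent only.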
Molecule `CO[C@H](CN(C)C(=O)c1ccccc1F)[C@@H](C)CN([C@H](C)CO)S(=O)(=O)c1ccc(F)cc1` displayed a viability index of 1.11 ± 0.041.
In the case of `COc1ccc(-c2ccccc2[C@H]2[C@@H](C#N)N(C(=O)NC(C)C)[C@H]2CO)cc1` it was 1.06 ± 0.061; in that of `CS(=O)(=O)N1[C@H](C#N)[C@H](c2ccccc2-c2ccccc2F)[C@H]1CO`, 1.16 ± 0.054.
Molecule `O=C(C[C@@H]1C=C[C@@H](NC(=O)Nc2cccc(F)c2)[C@@H](CO)O1)NCC1CCCCC1` displayed a viability index of 0.95 ± 0.071.
The value for `COc1ccccc1NC(=O)N[C@H]1CC[C@H](CCNS(=O)(=O)c2ccc(Cl)cc2)O[C@@H]1CO` was 0.853 ± 0.12.
`CCCC(=O)Nc1ccc2c(c1)C(=O)N(C)[C@H]1CC[C@@H](CC(=O)N3CCCCC3)O[C@@H]1CO2` had a viability index of 1.11 ± 0.061.
In the case of `CC(C)C#Cc1ccc([C@@H]2[C@@H](CO)N3C(=O)CN(C(=O)c4ccc5c(c4)OCO5)C[C@@H]23)cc1` it was 1.08 ± 0.072; in that of `C[C@@H]1CN([C@@H](C)CO)C(=O)c2ccccc2-c2ccccc2CO[C@@H]1CN(C)S(=O)(=O)c1cn(C)cn1`, 0.904 ± 0.074.
The value for `O=C(C1CCC1)N1CC2(C1)[C@@H](c1ccccc1)[C@@H](CO)N2Cc1nccs1` was 1.09 ± 0.07; that for `CO[C@H]1CN(C)C(=O)c2ccc(NC(=O)c3nc4ccccc4s3)cc2OC[C@H](C)N(Cc2cccnc2)C[C@@H]1C` was 1.04 ± 0.13.
Turning to `CCCC#Cc1ccc2c(c1)[C@@H]1[C@@H](CCN1S(=O)(=O)c1ccccc1C)[C@@H](CO)N2`, the viability index was determined as 1.01 ± 0.039.
In turn, `C[C@H](CO)N1C[C@H](C)[C@@H](CN(C)C(=O)C2CCOCC2)Oc2ncc(-c3cccc(C#N)c3)cc2C1=O` gave a viability index of 1 ± 0.03.
On to `COCC(=O)N1CC(=O)N2[C@H](CO)[C@H](c3ccc(C#CC4CC4)cc3)[C@@H]2C1`, for which the viability index worked out at 1.07 ± 0.04.
In the case of `Cc1ccc(OC(=O)N(C)C[C@@H]2OCc3ccccc3-c3ccccc3C(=O)N([C@@H](C)CO)C[C@@H]2C)cc1` it was 1.02 ± 0.055.
In the case of `C[C@H](NC(=O)C[C@@H]1CC[C@@H]2[C@@H](COc3ccc(NC(=O)C4CCOCC4)cc3C(=O)N2C)O1)c1ccccc1` it was 1.12 ± 0.072; in that of `COc1ccc2c3c([nH]c2c1)[C@@H](CO)N(C[C@]31CN(C1)C(=O)NC(C)C)C(=O)C1CCOCC1`, 1.03 ± 0.045; in that of `CN1C(=O)c2cc(NC(=O)c3cccc(Cl)c3)ccc2OC[C@@H]2O[C@@H](CC(=O)NC3CCCCC3)CC[C@H]21`, 1.1 ± 0.042.
The value for `CO[C@@H]1CN(C)C(=O)c2ccc(NS(=O)(=O)CC(F)(F)F)cc2OC[C@H](C)N(Cc2nccs2)C[C@@H]1C` was 1.11 ± 0.024; that for `COCC#Cc1ccc([C@@H]2[C@@H](CO)N3CCCCN(Cc4cccnc4)C[C@@H]23)cc1` was 1.06 ± 0.14.
`CN1[C@H](C(=O)N2CCc3ccccc3C2)[C@@H](CO)[C@@H]2Cn3c(ccc(-c4cccnc4)c3=O)[C@@H]21` had a viability index of 1.054 ± 0.0029.
